From the supplement of paper PMC12217912 come the findings set out here.

The chains are these.
B1: TEV protease; numbered along this chain (parent)
chain: MGESLFKGPRDYNPISSSICHLTNESDGHTTSLYGIGFGPFIITNKHLFRRNNGTLVVQSLHGVFKVKDTTTLQQHLVDGRDMIIIRMPKDFPPFPQKLKFREPQREERICLVTTNFQTKSMSSMVSDTSCTFPSGDGIFWKHWIQTKDGQCGSPLVSTRDGFIVGIHSASNFTNTNNYFTSVPKNFMELLTNQEAQQWVSGWRLNADSVLWGGHKVFMVKPEEPFQPVKEATQL

The other results are listed elsewhere or left out. Sequences were assembled here from the parent chain. Inactive controls read about 0.05.

This assay covers variants of B1. The assay is described as follows: raw area under fraction-flipped curve 0-4 h after induction (AUC4h, not background-subtracted), DNA-recorder readout of cleavage of the substrate (dimensionless); higher = more cleavage of the substrate by the protease variant. The note with it: temperature: 34 °C; time window: 0-4 h after rhamnose induction. As for the experimental part: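 In vivo DNA recorder in E. coli TOP10(DE3) ΔrhaA at 34 °C. Each TEVp single-site mutant (parent TEVp 0) is paired with a single-site variant of the 7-mer TEVs (canonical ENLYFQ|S). The substrate sits between flexible linkers in a Bxb1-sfGFP-TEVs-SsrA fusion, so cleavage stabilises Bxb1 and speeds flipping of a recombination array, read by NGS. The value is the raw area under the fraction-flipped curve over 0-4 h after rhamnose induction (AUC4h), with ≥20 reads per time point. It is not background-subtracted; inactive controls average about 0.047.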
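Note: Bxb1 expression induced with 0.2% (w/v) L-rhamnose at OD600 near 0.5, cultures sampled hourly, flipped fraction per protease–substrate barcode pair counted by paired-end Illumina sequencing.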

For MGESLFKGPRDYNPISSSICHLTNESDGHTTSLYGIGFGPFIITNKHLFRRNNGTLVVQSLHGVFKVKDTTTLQQHLVDGRDMIIIRMPKDFPPFPQKLKFREPQREERICLVTTNFQTKSMSSMVSDTSCTTPSGDGIFWKHWIQTKDGQCGSPLVSTRDGFIVGIHSASNFTNTNNYFTSVPKNFMELLTNQEAQQWVSGWRLNADSVLWGGHKVFMVKPEEPFQPVKEATQL [F133T], the “area with substrate ENLYFQA” value was 0.0946, the “area with substrate ENLYFQC” value came to 0.104, the “area with substrate ENLYFQD” value is 0.06 and the “area with substrate ENLYFQH” value is 0.112. In addition, the “area with substrate ENLYFQI” value came out at 0.0668, the “area with substrate ENLYFQK” value worked out at 0.0966, the “area with substrate ENLYFQM” value worked out at 0.0836 and the “area with substrate ENLYFQN” value came to 0.0679. Also, the “area with substrate ENLYFQQ” value amounted to 0.086, the “area with substrate ENLYFQS” value is 0.115, the “area with substrate ENLYFQV” value stood at 0.0775 and the “area with substrate ENLYFQY” value was found to be 0.0847.
For MGESLFKGPRDYNPISSSICHLTNESDGHTTSLYGIGFGPRIITNKHLFRRNNGTLVVQSLHGVFKVKDTTTLQQHLVDGRDMIIIRMPKDFPPFPQKLKFREPQREERICLVTTNFQTKSMSSMVSDTSCTFPSGDGIFWKHWIQTKDGQCGSPLVSTRDGFIVGIHSASNFTNTNNYFTSVPKNFMELLTNQEAQQWVSGWRLNADSVLWGGHKVFMVKPEEPFQPVKEATQL [F41R], the “area with substrate ENLYFQA” value amounted to 0.0497, the “area with substrate ENLYFQC” value turned out to be 0.0404, the “area with substrate ENLYFQF” value came out at 0.0667 and the “area with substrate ENLYFQG” value worked out at 0.0585. Also, the “area with substrate ENLYFQH” value was found to be 0.0522, the “area with substrate ENLYFQK” value was 0.0561, the “area with substrate ENLYFQM” value stood at 0.0565 and the “area with substrate ENLYFQP” value was 0.0603. Also, the “area with substrate ENLYFQR” value turned out to be 0.0677, the “area with substrate ENLYFQS” value was 0.0558, the “area with substrate ENLYFQT” value came to 0.0637 and the “area with substrate ENLYFQV” value was 0.0578. Moreover, the “area with substrate ENLYFQY” value came to 0.0516.
For the variant MGESLFKGPRDYNPISSSICHLTNESDGHTTSLYGIGFGPFIITNKHLFRRNNGTLVVQSLHGVFKVKDTTTLQQHLVDGRDMIIIRMPKDFPPFPQKLKFREPQREERICLVTTNFQTKSMSSMVSDTSCTFPSGDGIFWKHWIQTKDGQCGSPLVSTRDGFIVGIHSASNFTNTNNYFTSVPKNFDELLTNQEAQQWVSGWRLNADSVLWGGHKVFMVKPEEPFQPVKEATQL [M188D], the “area with substrate ENLYFQA” value worked out at 0.128, the “area with substrate ENLYFQC” value worked out at 0.124, the “area with substrate ENLYFQD” value turned out to be 0.0757 and the “area with substrate ENLYFQG” value came to 0.076. In addition, the “area with substrate ENLYFQI” value worked out at 0.0599, the “area with substrate ENLYFQK” value is 0.0593, the “area with substrate ENLYFQL” value was found to be 0.0545 and the “area with substrate ENLYFQM” value amounted to 0.0567. Further, the “area with substrate ENLYFQN” value was 0.0707, the “area with substrate ENLYFQP” value was found to be 0.0554, the “area with substrate ENLYFQQ” value was 0.0723 and the “area with substrate ENLYFQR” value came to 0.0594. The “area with substrate ENLYFQS” value was 0.102, the “area with substrate ENLYFQT” value turned out to be 0.0536, the “area with substrate ENLYFQV” value was determined as 0.0677 and the “area with substrate ENLYFQW” value worked out at 0.0546. Also, the “area with substrate ENLYFQY” value was determined as 0.0755.
Take MGESLFKGPRDYNPISSSICHLTNESDGHTTSLYGIGFGPFIITNKHLFRRNNGTLVVQSLHGVFKVKDTTTLQQHLVDGRIMIIIRMPKDFPPFPQKLKFREPQREERICLVTTNFQTKSMSSMVSDTSCTFPSGDGIFWKHWIQTKDGQCGSPLVSTRDGFIVGIHSASNFTNTNNYFTSVPKNFMELLTNQEAQQWVSGWRLNADSVLWGGHKVFMVKPEEPFQPVKEATQL [D82I]: the “area with substrate ENLYFQA” value came to 0.0388, the “area with substrate ENLYFQG” value amounted to 0.0461, the “area with substrate ENLYFQK” value was determined as 0.029 and the “area with substrate ENLYFQL” value was 0.0038. In addition, the “area with substrate ENLYFQN” value turned out to be 0.0255, the “area with substrate ENLYFQS” value came to 0.0489, the “area with substrate ENLYFQV” value was determined as 0.0303 and the “area with substrate ENLYFQW” value amounted to 0.0435.
As to MGESLFKGPRDYNPISSSICHLTNESDGHTTSLYGIGFGPFIITNKHLFRRNNGTLVVQSLHGVFKVKDTTTLQQHLVDGRDMIIIRMPKDFPPFPQKLKFREPQREERICLVTTNFQTKSMSSMVSDTSCTFPSGDGIFWKHWIQTKDGQCGSPLVSTRDGFIVGIHSASNFTNTNNYFTSVPKNFMELLTNQEAQQWVSGWRLNADSVLWGGHKVFMVKPEEPFGPVKEATQL [Q227G], the “area with substrate ENLYFQA” value was 0.121, the “area with substrate ENLYFQD” value came to 0.0651, the “area with substrate ENLYFQK” value is 0.0589 and the “area with substrate ENLYFQL” value is 0.067. In addition, the “area with substrate ENLYFQM” value amounted to 0.0821, the “area with substrate ENLYFQP” value was found to be 0.0569, the “area with substrate ENLYFQS” value stood at 0.112 and the “area with substrate ENLYFQW” value worked out at 0.0673. The “area with substrate ENLYFQY” value stood at 0.0705.
As for MGESLFKGPRDYNPISSSICHLTNESDGHTTSLYGIGFGPFIITNKHLFRRNNGTLVVQSLHGVFKVKDTTTLQQHLVDGRDMIIIRMPKDFPPFPQKLKFREPQREERICLVTTNFQTKSMSSMVSDTSCTFPSGDGIFWKHWIQTKDGQCGSPLVSTRDGFIVGIHSATNFTNTNNYFTSVPKNFMELLTNQEAQQWVSGWRLNADSVLWGGHKVFMVKPEEPFQPVKEATQL [S171T], the “area with substrate ENLYFQA” value came out at 0.0909, the “area with substrate ENLYFQF” value was 0.0727, the “area with substrate ENLYFQG” value stood at 0.139 and the “area with substrate ENLYFQS” value is 0.123. Besides, the “area with substrate ENLYFQV” value was 0.0575 and the “area with substrate ENLYFQW” value is 0.0681.
MGESLFKGPRDYNPISSSICHLTNESDGHTTSLYGIGFGPFIITNKHLFRRNNGTLVVQSLHGVFKVKDTTTLQQHLVDGRDMIIIRMPKDFPPFPQKLKFREPQREERICLVTTNFQTKSSSSMVSDTSCTFPSGDGIFWKHWIQTKDGQCGSPLVSTRDGFIVGIHSASNFTNTNNYFTSVPKNFMELLTNQEAQQWVSGWRLNADSVLWGGHKVFMVKPEEPFQPVKEATQL [M122S]: the “area with substrate ENLYFQA” value stood at 0.14, the “area with substrate ENLYFQC” value came to 0.134, the “area with substrate ENLYFQF” value turned out to be 0.0788 and the “area with substrate ENLYFQH” value was 0.0829. Also, the “area with substrate ENLYFQL” value is 0.0617, the “area with substrate ENLYFQM” value was determined as 0.104, the “area with substrate ENLYFQP” value worked out at 0.0566 and the “area with substrate ENLYFQR” value stood at 0.0611. The “area with substrate ENLYFQS” value was determined as 0.117, the “area with substrate ENLYFQT” value came to 0.046 and the “area with substrate ENLYFQV” value came to 0.0451.
With MGESLFKGPRDYNPISSSICHLTNESDGHTTSLYGIGFGPFIITNKHLFRRNNGTLVVQSLHGVFKVKDTTTLQQHLVDGRDMIIIRMPKDFPPFPQKLKFREPQREERICLVTTNFQTKSMSSMVSDTSCTFPSGDGIFWKHWIQTKDGQCGSPLVSTRDGFIVGIHSASNFTNTNNYFTSVPKNFMELLTNQEAQQWVSGWRRNADSVLWGGHKVFMVKPEEPFQPVKEATQL [L205R], the “area with substrate ENLYFQA” value is 0.059, the “area with substrate ENLYFQC” value worked out at 0.0606, the “area with substrate ENLYFQG” value amounted to 0.0605 and the “area with substrate ENLYFQL” value worked out at 0.0625. The “area with substrate ENLYFQM” value was found to be 0.0534, the “area with substrate ENLYFQN” value is 0.0506, the “area with substrate ENLYFQP” value amounted to 0.0596 and the “area with substrate ENLYFQR” value is 0.0455. In addition, the “area with substrate ENLYFQS” value worked out at 0.0634, the “area with substrate ENLYFQV” value amounted to 0.0547 and the “area with substrate ENLYFQW” value was 0.058.
For the variant MGESLFKGPRDYNPISSSICHLTNESDGHTTSLYGIGFGPFIITNKHLFRRNNGTLVVQSLHGVFKVKDTTTLQQHLVDGRDMIIIRMPKDFPPFPQKLKFREPQREERICLVTTNFQTKSMSSMVSDTSCTFPSGDGIFWKHWIQTKDGQCGSPLVSTRDGFIVGIHSASNFTNTNNYFTSVPKNFMELLTNQEAQQWVSGWRLNADSVLWGGHKVFMVKPEEPFQPVKEATQA [L235A], the “area with substrate ENLYFQA” value came out at 0.0835, the “area with substrate ENLYFQC” value came out at 0.112, the “area with substrate ENLYFQD” value stood at 0.066 and the “area with substrate ENLYFQF” value was 0.0787. The “area with substrate ENLYFQG” value amounted to 0.121, the “area with substrate ENLYFQI” value was determined as 0.0645, the “area with substrate ENLYFQK” value amounted to 0.0571 and the “area with substrate ENLYFQL” value amounted to 0.0638. Further, the “area with substrate ENLYFQM” value turned out to be 0.0799, the “area with substrate ENLYFQN” value worked out at 0.0725, the “area with substrate ENLYFQR” value amounted to 0.062 and the “area with substrate ENLYFQS” value was found to be 0.104. Moreover, the “area with substrate ENLYFQT” value is 0.0511, the “area with substrate ENLYFQV” value was found to be 0.0444 and the “area with substrate ENLYFQY” value was 0.0629.
As for MGESLFKGPRDYNPISSSICHLTNESDGHTTSLYGIGFGPFIITNKHLFRRNNGTLVVQSLHGVFKVKDTTTLQQHLVDGRDMIIGRMPKDFPPFPQKLKFREPQREERICLVTTNFQTKSMSSMVSDTSCTFPSGDGIFWKHWIQTKDGQCGSPLVSTRDGFIVGIHSASNFTNTNNYFTSVPKNFMELLTNQEAQQWVSGWRLNADSVLWGGHKVFMVKPEEPFQPVKEATQL [I86G], the “area with substrate ENLYFQA” value came out at 0.0398, the “area with substrate ENLYFQL” value stood at 0.0435, the “area with substrate ENLYFQS” value stood at 0.043 and the “area with substrate ENLYFQW” value came out at 0.0352. In addition, the “area with substrate ENLYFQY” value was determined as 0.0535.
